About 14,000 (4.5%) of roughly 310,000 compounds showed an effect of 50% or more. The effect is printed as a negative number. This is one part of the list.
target: human ether-à-go-go-related gene (hERG) potassium channel (human, UniProt Q12809); test: primary screen, population patch clamp on CHO cells stably expressing hERG
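Also: peak tail current of the secondary pulse compared with the same well before compound.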

Chain of human ether-à-go-go-related gene (hERG) potassium channel (Q12809 whole entry, looked up): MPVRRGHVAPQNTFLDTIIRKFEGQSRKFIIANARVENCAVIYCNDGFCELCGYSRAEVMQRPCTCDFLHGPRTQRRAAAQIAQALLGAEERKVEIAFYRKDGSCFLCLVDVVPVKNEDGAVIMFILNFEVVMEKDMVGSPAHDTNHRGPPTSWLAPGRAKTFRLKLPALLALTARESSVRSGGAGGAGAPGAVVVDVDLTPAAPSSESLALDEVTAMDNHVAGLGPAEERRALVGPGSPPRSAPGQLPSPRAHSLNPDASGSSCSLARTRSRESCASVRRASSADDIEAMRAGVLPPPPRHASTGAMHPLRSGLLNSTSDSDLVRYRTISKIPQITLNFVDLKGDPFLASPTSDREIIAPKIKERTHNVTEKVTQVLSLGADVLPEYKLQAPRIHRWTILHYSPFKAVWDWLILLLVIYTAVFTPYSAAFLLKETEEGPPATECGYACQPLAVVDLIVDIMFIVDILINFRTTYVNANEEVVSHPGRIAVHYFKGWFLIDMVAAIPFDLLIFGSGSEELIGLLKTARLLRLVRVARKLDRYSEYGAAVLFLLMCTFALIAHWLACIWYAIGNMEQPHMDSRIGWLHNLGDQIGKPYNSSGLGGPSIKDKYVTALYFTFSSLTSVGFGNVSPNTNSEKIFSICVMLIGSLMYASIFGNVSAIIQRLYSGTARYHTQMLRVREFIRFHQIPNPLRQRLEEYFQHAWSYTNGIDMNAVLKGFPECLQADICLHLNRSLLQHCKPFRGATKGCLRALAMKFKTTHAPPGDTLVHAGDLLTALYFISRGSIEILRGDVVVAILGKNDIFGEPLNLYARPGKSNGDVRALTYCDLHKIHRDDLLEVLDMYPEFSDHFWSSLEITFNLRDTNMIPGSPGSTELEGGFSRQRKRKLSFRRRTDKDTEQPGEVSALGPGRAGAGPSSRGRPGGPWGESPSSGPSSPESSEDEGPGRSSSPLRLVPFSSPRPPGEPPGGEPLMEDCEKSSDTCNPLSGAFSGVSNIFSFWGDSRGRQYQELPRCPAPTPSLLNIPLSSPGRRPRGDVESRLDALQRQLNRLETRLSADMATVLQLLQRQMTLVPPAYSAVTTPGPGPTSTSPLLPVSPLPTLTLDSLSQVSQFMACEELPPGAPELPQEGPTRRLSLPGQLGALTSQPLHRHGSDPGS

Q: How did the “hERG current change (%, negative = inhibition) at 10uM” value turn out when `Cc1c(C(=O)N2CCOCC2)cc(C(C)(C)C)n1-c1ccccc1` was run?
A: -7.58%

Q: How did the “hERG current change (%, negative = inhibition) at 10uM” value turn out when `CC(=O)Nc1ccc(/C=C(\C#N)C(=O)NCc2ccccc2)cc1` was run?
A: 11.8%

Q: `O=C1CCCC(c2ccccc2)N1` (centres unmarked) was tested. Which “hERG current change (%, negative = inhibition) at 10uM” value did it give?
A: -4.84%

Q: With `Cc1nnc(SCC(=O)Nc2ccc3c(c2)OCO3)[nH]c1=O` as the compound, how does the “hERG current change (%, negative = inhibition) at 10uM” value read?
A: 21.9%

Q: How did the “hERG current change (%, negative = inhibition) at 10uM” value turn out when `Cc1cc(Br)ccc1NC(=O)CCS(=O)(=O)c1cccc2nonc12` was run?
A: 20.3%

Q: How did the “hERG current change (%, negative = inhibition) at 10uM” value turn out when `O=C(N/N=C/c1ccc([N+](=O)[O-])o1)c1sc2ccccc2c1Cl` was run?
A: -22.6%

Q: Which “hERG current change (%, negative = inhibition) at 10uM” value does the source give for `c1ccc2c(c1)nc1n2CCN1CCNC1CCCCC1` here?
A: -28.6%

Q: With `Cc1cc(C(=O)COc2cccc3cccnc23)c(C)n1C` as the compound, how does the “hERG current change (%, negative = inhibition) at 10uM” value read?
A: 10.8%

Q: `COc1ccc(Cn2c(=O)c3cccnc3n(Cc3ccc([N+](=O)[O-])cc3)c2=O)cc1` was tested. Which “hERG current change (%, negative = inhibition) at 10uM” value did it give?
A: -5.45%

Q: Which “hERG current change (%, negative = inhibition) at 10uM” value does the source give for `Cc1nc(-c2ccc(S(=O)(=O)Nc3cccc(Cl)c3)cc2)co1` here?
A: 25.5%

Q: With `Cc1ccc2nc(-c3ccccc3)nc(SC(C)C(=O)NCc3cccs3)c2c1` (centres unmarked) as the compound, how does the “hERG current change (%, negative = inhibition) at 10uM” value read?
A: 11.7%

Q: How did the “hERG current change (%, negative = inhibition) at 10uM” value turn out when `Cc1cc(=O)[nH]c(SCC(=O)c2ccc(C)c(C)c2)n1` was run?
A: 16.2%

Q: For `CCOc1ccc(S(=O)(=O)NC2CCCCC2C)cc1` (centres unmarked), which “hERG current change (%, negative = inhibition) at 10uM” value is on record?
A: -16.7%

Q: With `O=C(c1ccc(Cl)s1)N1CCN(c2ccccc2)CC1` as the compound, how does the “hERG current change (%, negative = inhibition) at 10uM” value read?
A: -26.5%

Q: Which “hERG current change (%, negative = inhibition) at 10uM” value does the source give for `CC(=O)N1CC(C)Sc2ccc(S(=O)(=O)NC(C)c3ccccc3)cc21` (centres unmarked) here?
A: 3.27%

Q: With `COc1ccccc1C(=O)Nc1nc2cc3c(cc2s1)OCCO3` as the compound, how does the “hERG current change (%, negative = inhibition) at 10uM” value read?
A: 9.66%

Q: Which “hERG current change (%, negative = inhibition) at 10uM” value does the source give for `Cc1cccc(N(CC(=O)NCCC2=CCCCC2)S(C)(=O)=O)c1C` here?
A: -22.8%

Q: Which “hERG current change (%, negative = inhibition) at 10uM” value does the source give for `Cc1nc2ccccc2c(=O)n1NC(=O)C1CC1` here?
A: 16.3%

Q: For `O=C(Nc1ccccc1-c1nnc(SCc2ccccc2Cl)o1)c1ccccc1`, which “hERG current change (%, negative = inhibition) at 10uM” value is on record?
A: -6.61%

Q: Which “hERG current change (%, negative = inhibition) at 10uM” value does the source give for `CC(C)(C)OC(=O)NCCCCCNC(=O)c1[nH]cnc1C(=O)Nc1ccccc1` here?
A: -53.2%

Q: For `COc1cccc(C(O)c2cnc(C(C)C)n2C)c1OC` (centres unmarked), which “hERG current change (%, negative = inhibition) at 10uM” value is on record?
A: 12.8%

Q: Which “hERG current change (%, negative = inhibition) at 10uM” value does the source give for `Cc1ccc(CNC(=O)C2CCCN(c3cnccn3)C2)cc1` (centres unmarked) here?
A: -40%

Q: With `CC(=O)n1cc([C@@H]2C=C(C(=O)N3CCN(C)CC3)O[C@H](OCc3ccc(CO)cc3)C2)c2ccccc21` as the compound, how does the “hERG current change (%, negative = inhibition) at 10uM” value read?
A: -41.7%

Q: With `Cc1ccc(C)c(S(=O)(=O)Nc2cc(SCC(=O)O)c(O)c3ccccc23)c1` as the compound, how does the “hERG current change (%, negative = inhibition) at 10uM” value read?
A: 5.34%

Q: With `COc1ccc(S(=O)(=O)NC2CCc3ccccc32)cc1OC` (centres unmarked) as the compound, how does the “hERG current change (%, negative = inhibition) at 10uM” value read?
A: 4.55%

Q: How did the “hERG current change (%, negative = inhibition) at 10uM” value turn out when `O=C1NC2(CCCc3ccccc32)C(=O)N1CCOc1ccc(Br)cc1` (centres unmarked) was run?
A: -7.68%

Q: With `CCOC(=O)C1(CCc2ccccc2)CCN(C(=O)CN2C(=O)CSC2=O)CC1` as the compound, how does the “hERG current change (%, negative = inhibition) at 10uM” value read?
A: -23.3%

Q: Which “hERG current change (%, negative = inhibition) at 10uM” value does the source give for `O=C(COC(=O)CCc1c[nH]c2ccccc12)NCc1ccc2c(c1)OCO2` here?
A: 13.2%

Q: How did the “hERG current change (%, negative = inhibition) at 10uM” value turn out when `O=C(CSC1=NCCS1)Nc1cccc2ccccc12` was run?
A: 2.65%

Q: How did the “hERG current change (%, negative = inhibition) at 10uM” value turn out when `O=C(COc1ccc2c3c(c(=O)oc2c1)CCC3)Nc1ccc(CCO)cc1` was run?
A: 21.2%

Q: How did the “hERG current change (%, negative = inhibition) at 10uM” value turn out when `Cc1nc(C/C(=N\N)c2ccc(O)cc2O)cs1` was run?
A: 5.58%

Q: How did the “hERG current change (%, negative = inhibition) at 10uM” value turn out when `Cc1cc(CN(C)C(=O)c2ccc3nc(Cc4ccccc4F)oc3c2)n[nH]1` was run?
A: 1.74%

Q: For `CCOCCCNC(=O)C(c1ccc(Cl)cc1)N(Cc1ccc2c(c1)OCO2)C(=O)CNC(C)=O` (centres unmarked), which “hERG current change (%, negative = inhibition) at 10uM” value is on record?
A: 12.3%

Q: Which “hERG current change (%, negative = inhibition) at 10uM” value does the source give for `Cl.O=C(CN1CCCCCC1)Nc1ccc(Oc2ccccc2)cc1` here?
A: -78.6%

Q: `COc1cccc(N2CCN(S(=O)(=O)c3cn(C)cn3)CC2)c1` was tested. Which “hERG current change (%, negative = inhibition) at 10uM” value did it give?
A: 20.8%

Q: With `CCc1ccc(/C=C/C(=O)C2C(=O)c3ccccc3C2=O)cc1` as the compound, how does the “hERG current change (%, negative = inhibition) at 10uM” value read?
A: 6.34%

Q: `CCS(=O)(=O)C(=C1Nc2ccccc2N1)S(=O)(=O)CC` was tested. Which “hERG current change (%, negative = inhibition) at 10uM” value did it give?
A: 15.1%

Q: Which “hERG current change (%, negative = inhibition) at 10uM” value does the source give for `CNC(=O)Nc1ccc2snnc2c1` here?
A: 17.6%

Q: `Cc1ccc(S(=O)(=O)NC(Cc2ccccc2)C(=O)O)cc1C` (centres unmarked) was tested. Which “hERG current change (%, negative = inhibition) at 10uM” value did it give?
A: 19.6%

Q: How did the “hERG current change (%, negative = inhibition) at 10uM” value turn out when `Clc1ccc(-c2noc(CSc3nnc(Cc4cccs4)n3-c3ccccc3)n2)cc1` was run?
A: 5.37%

Q: `COCC(=O)Nc1c(C(=O)N2CCCC2)oc2ccccc12` was tested. Which “hERG current change (%, negative = inhibition) at 10uM” value did it give?
A: 1.46%

Q: For `C/C(=N\N=C1\NC(=O)CC(C(=O)O)S1)c1ccc(F)cc1` (centres unmarked), which “hERG current change (%, negative = inhibition) at 10uM” value is on record?
A: 0.193%

Q: `CCc1ccc(C(=O)c2cc3ccc(O)cc3oc2=O)cc1` was tested. Which “hERG current change (%, negative = inhibition) at 10uM” value did it give?
A: -0.0727%

Q: `CCOC(=O)c1cc2sc(C)cc2n1CC(=O)NCCc1ccccc1` was tested. Which “hERG current change (%, negative = inhibition) at 10uM” value did it give?
A: 7.12%

— article PMC4336329 (PLoS ONE, 2015)
